Data from publication PMC7537107 (Journal of neurochemistry, 2019).

Target: HA-tagged spinophilin F451A mutant (human, UniProt Q96SB3 1-817, F451A)
Assay: co-IP

Sequence of UniProt Q96SB3 (Q96SB3 whole entry F451A): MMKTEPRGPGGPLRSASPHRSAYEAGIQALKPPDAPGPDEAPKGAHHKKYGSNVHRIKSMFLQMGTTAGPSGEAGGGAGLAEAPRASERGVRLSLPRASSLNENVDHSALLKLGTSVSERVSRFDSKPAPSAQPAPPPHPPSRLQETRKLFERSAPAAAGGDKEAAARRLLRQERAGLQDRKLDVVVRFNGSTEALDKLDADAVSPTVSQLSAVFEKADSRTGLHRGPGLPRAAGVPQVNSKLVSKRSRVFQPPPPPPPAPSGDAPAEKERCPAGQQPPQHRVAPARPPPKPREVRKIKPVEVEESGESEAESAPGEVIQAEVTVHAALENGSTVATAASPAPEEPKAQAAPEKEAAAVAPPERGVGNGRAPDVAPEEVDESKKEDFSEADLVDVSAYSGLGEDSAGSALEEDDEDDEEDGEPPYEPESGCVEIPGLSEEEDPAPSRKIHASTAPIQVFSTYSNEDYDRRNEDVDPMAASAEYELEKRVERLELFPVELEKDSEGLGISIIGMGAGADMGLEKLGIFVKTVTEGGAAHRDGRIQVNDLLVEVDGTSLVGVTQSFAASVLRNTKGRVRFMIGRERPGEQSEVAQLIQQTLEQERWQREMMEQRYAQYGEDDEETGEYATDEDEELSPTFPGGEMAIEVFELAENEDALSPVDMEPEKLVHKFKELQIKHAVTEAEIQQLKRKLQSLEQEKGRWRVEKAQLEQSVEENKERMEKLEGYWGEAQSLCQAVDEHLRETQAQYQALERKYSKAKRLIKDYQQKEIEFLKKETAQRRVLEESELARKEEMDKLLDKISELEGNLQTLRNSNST

co-IP of PP1γ1 with F451A spinophilin as ratio to WT spinophilin: 0.379 ratio to WT
B1: Myc-tagged PP1γ1 (enzyme)
chain: not shown
